Data: US3965109A, “Certain aryl amino pyridines” (priority 1971, dated 1976)
The name of at least one read-out is uncertain. Some ranges recur; such a range may be that of the whole group of compounds.

Assays:
[1] = tested on: Podosphaera leucotricha (apple); test: Fungicidal test against foliar disease F (foliage spray plus soil drench); type: in vivo; details: 7 days
[2] = tested on: Botrytis cinerea (chocolate spot of beans); test: Fungicidal test against foliar disease H (foliage spray plus soil drench); type: in vivo; details: 100 ppm spray and drench; 3 days
[3] = tested on: mixed culture of green algae; test: Test for algicidal activity; type: cell-based; details: 20 ppm; 1 week
Pseudomonas phaseolicola = test: Antibacterial agar test (B9); type: cell-based; details: 50 ppm; 5 days
Erwinia amylovora = test: Antibacterial agar test (B10); type: cell-based; details: 50 ppm; 5 days
[4] = tested on: Pseudomonas mors-prunorum; test: Antibacterial agar test (B8); type: cell-based; details: 50 ppm; 5 days
Nigrospora sphaerica = test: Antifungal agar test (F1); type: cell-based; details: 50 ppm; 6 days
Botrytis tulipae = test: Antifungal agar test (F10); type: cell-based; details: 50 ppm; 6 days
Diplodia natalensis = test: Antifungal agar test (F4); type: cell-based; details: 50 ppm; 6 days
Botrodiplodia theobromae = test: Antifungal agar test (F11); type: cell-based; details: 50 ppm; 6 days
Ceratosystis paradoxa = test: Antifungal agar test (F6); type: cell-based; details: 50 ppm; 6 days
Phomopsis citri = test: Antifungal agar test (F5); type: cell-based; details: 50 ppm; 6 days
Gloeosporium musarum = test: Antifungal agar test (F7); type: cell-based; details: 50 ppm; 6 days
[5] = tested on: Phytophthora eitrophthora; test: Antifungal agar test (F2); type: cell-based; details: 50 ppm; 6 days
Penicillium digitatum = test: Antifungal agar test (F8); type: cell-based; details: 50 ppm; 6 days
Alternaria citri = test: Antifungal agar test (F3); type: cell-based; details: 50 ppm; 6 days
Phoma exigua = test: Antifungal agar test (F9); type: cell-based; details: 50 ppm; 6 days
[6] = tested on: Venturia inaequalis (apple); test: Fungicidal test against foliar disease G (foliage spray plus soil drench); type: in vivo; details: 25 ppm; 21 days
Experimental: This Example illustrates the fungicidal properties of compounds used as active ingredients in the compositions of the invention. The compounds were tested against a wide variety of foliar fungal diseases of plants. In the test, a composition comprising an aqueous solution or suspension of the test compound was sprayed on to the foliage or uninfected plants; the soil in which the plants were growing was also drenched with the composition. The compositions used for spraying and drencing contained 100 parts per million (ppm.) of the test compound except where otherwise stated in the table of results below. After spraying and drenching, the plants were then exposed to infection with the diseases it was desired to control, along with control plants not treated with the compound. After a period of days, depending upon the particular disease, the extent of the disease was visually assessed, as a percentage of the disease established upon the control plants which had not been treated with the compound under test, according to the grading scheme below
In Table 2 below the names of the disease is given in the first column, and in the second column is given the time which elapsed between exposing the plants to infection and assessing the amount of disease.

Row | SMILES | Amount of disease grading, disease H [2] | Amount of disease grading, disease F ([1]; 100 ppm spray and drench) | Antibacterial activity grading B9 (Pseudomonas phaseolicola) | Antibacterial activity grading B8 [4] | Amount of disease grading, disease H (Table 4) [2] | Amount of disease grading, disease F (Table 4) ([1]; 100 ppm spray and drench) | also measured
1 | Fc1nc(F)c(Cl)c(Nc2c(Cl)cccc2Cl)c1Cl [Compound 3, 3,5-Dichloro-2,6-difluoro-4(2,6-dichloroanilino)pyridine] | – | – | – | – | – | – | Amount of disease grading, disease F ([1]; 50 ppm spray + 200 ppm soil drench): 2 (6 to 25)
2 | Fc1nc(F)c(Cl)c(Nc2c(Cl)cc(Cl)cc2Cl)c1Cl [Compound 7, 3,5-Dichloro-2,6-difluoro-4(2,4,6-trichloroanilino)pyridine] | 0 (61 to 100) | – | – | – | – | – | –
3 | O=[N+]([O-])c1c(F)c(F)c(Nc2c(Cl)c(F)nc(F)c2Cl)c(F)c1F [Compound 12, 3,5-Dichloro-2,6-difluoro-4(4-nitro 2,3,5,6-tetrafluoroanilino) pyridine] | 3 (0 to 5) | 3 (0 to 5) | – | – | – | – | Algal growth grading [3]: 3 (0 to 5)
4 | Fc1nc(F)c(Cl)c(Nc2cc(C(F)(F)F)ccc2Br)c1Cl [Compound 13, 3,5-Dichloro-2,6-difluoro-4(2-bromo-5-trifluoromethylanilino)pyridine] | 2 (6 to 25) | 0 (61 to 100) | – | – | – | – | –
5 | O=[N+]([O-])c1ccc(Nc2c(F)c(F)nc(F)c2F)c([N+](=O)[O-])c1 [Compound 15, 4(2,4-Dinitroanilino)-tetrafluoropyridine] | – | 3 (0 to 5) | 3 (0 to 5) | 3 (0 to 5) | – | – | Antibacterial activity grading B10 (Erwinia amylovora): 3 (0 to 5)
6 | O=[N+]([O-])c1cc(C(F)(F)F)ccc1Nc1c(Cl)c(F)nc(F)c1Cl [Compound 16, 3,5-Dichloro-2,6-difluoro-4(2-nitro-4-trifluoromethylanilino) pyridine] | 0 (61 to 100) | 2 (6 to 25) | – | – | – | – | –
7 | Fc1nc(F)c(Cl)c(Nc2c(F)c(F)c(F)c3c(F)c(F)c(F)c(F)c23)c1Cl [Compound 20, 3,5-Dichloro-2,6-difluoro-4(1-heptafluoronaphthylamino)pyridine] | 1 (26 to 60) | 3 (0 to 5) | 0 (61 to 100) | 0 (61 to 100) | – | – | –
8 | COc1nc(F)c(Cl)c(Nc2c(F)c(F)c(C#N)c(F)c2F)c1Cl [Compound 21, 2-Fluoro-3,5-dichloro-6methoxy-4(4-cyano-2,3,5,6-tetrafluoroanilino)pyridine] | 2 (6 to 25) | 3 (0 to 5) | 2 (6 to 25) | 1 (26 to 60) | – | – | –
9 | O=[N+]([O-])c1cc(Cl)c(Nc2c(Cl)c(F)nc(F)c2Cl)cc1Cl [Compound 24, 3,5-Dichloro-2,6-difluoro-4(2,5-dichloro-4nitro-anilino)pyridine] | – | – | 3 (0 to 5) | 2 (6 to 25) | 3 (0 to 5) | – | Antifungal activity grading F1 (Nigrospora sphaerica): 3 (0 to 5); Antifungal activity grading F10 (Botrytis tulipae): 3 (0 to 5); Antifungal activity grading F4 (Diplodia natalensis): 3 (0 to 5); Antifungal activity grading F11 (Botrodiplodia theobromae): 3 (0 to 5); Antifungal activity grading F6 (Ceratosystis paradoxa): 3 (0 to 5); Antifungal activity grading F5 (Phomopsis citri): 3 (0 to 5); Antifungal activity grading F7 (Gloeosporium musarum): 3 (0 to 5); Antifungal activity grading F2 [5]: 3 (0 to 5); Antifungal activity grading F8 (Penicillium digitatum): 3 (0 to 5); Antifungal activity grading F3 (Alternaria citri): 3 (0 to 5); Antifungal activity grading F9 (Phoma exigua): 3 (0 to 5)
10 | O=[N+]([O-])c1cc([N+](=O)[O-])c2ccccc2c1Nc1c(Cl)c(F)nc(F)c1Cl [Compound 25, 3,5-Dichloro-2,6-difluoro-4(2,4-dinitro-1-naphthylamino) pyridine] | – | – | – | – | 0 (61 to 100) | – | Amount of disease grading, disease G* (Table 4) [6]: 0 (61 to 100)
11 | O=[N+]([O-])c1cc(Cl)c(Nc2c(Cl)c(F)nc(F)c2Cl)c(Cl)c1 [Compound 27, 3,5-Dichloro-2,6-difluoro-4(2,6-dichloro-4-nitroanilino)pyridine] | – | – | – | – | 3 (0 to 5) | 3 (0 to 5) | Amount of disease grading, disease G* (Table 4) [6]: 3 (0 to 5)
12 | Fc1nc(F)c(Cl)c(Nc2c(F)c(F)c(Br)c(F)c2F)c1Cl [Compound 30, 4(4-Bromo-2,3,5,6-tetrafluoroanilino)-3,5-dichloro-2,6-difluoropyridine] | – | – | – | – | 0 (61 to 100) | 3 (0 to 5) | –
13 | CN(C)S(=O)(=O)c1cc(Cl)c(Nc2c(Cl)c(F)nc(F)c2Cl)cc1Cl [Compound 31, 3,5-Dichlor-2,6-difluoro-4(2,5-dichlor-4-N,N-dimethylsulphamoylanilino)pyridine] | – | – | – | – | 0 (61 to 100) | 3 (0 to 5) | –
14 | N#Cc1c(F)c(F)c(Nc2c(Cl)c(F)nc(F)c2Cl)c(F)c1C#N [Compound 33, 3,5-Dichloro-4(3,4-dicyano-2,5,6-trifluoroanilino) 2,6-difluoropyridine] | – | – | 0 (61 to 100) | 0 (61 to 100) | 0 (61 to 100) | 3 (0 to 5) | Antifungal activity grading F1 (Nigrospora sphaerica): 3 (0 to 5); Antifungal activity grading F10 (Botrytis tulipae): 3 (0 to 5); Antifungal activity grading F4 (Diplodia natalensis): 3 (0 to 5); Antifungal activity grading F11 (Botrodiplodia theobromae): 3 (0 to 5); Antifungal activity grading F6 (Ceratosystis paradoxa): 3 (0 to 5); Antifungal activity grading F5 (Phomopsis citri): 3 (0 to 5); Antifungal activity grading F7 (Gloeosporium musarum): 3 (0 to 5); Antifungal activity grading F2 [5]: 3 (0 to 5); Antifungal activity grading F8 (Penicillium digitatum): 3 (0 to 5); Antifungal activity grading F3 (Alternaria citri): 3 (0 to 5); Antifungal activity grading F9 (Phoma exigua): 3 (0 to 5)
15 | O=[N+]([O-])c1cc([N+](=O)[O-])c(Nc2c(Cl)c(Cl)nc(Cl)c2Cl)cc1F [Compound 35, 4(5-Fluoro-2,4-dinitroanilino)tetrachloropyridine] | – | – | 0 (61 to 100) | 0 (61 to 100) | 2 (6 to 25) | 0 (61 to 100) | Amount of disease grading, disease G* (Table 4) [6]: 0 (61 to 100); Antibacterial activity grading B10 (Erwinia amylovora): 2 (6 to 25)
16 | O=[N+]([O-])c1ccc(Nc2c(F)c(F)nc(F)c2Cl)c([N+](=O)[O-])c1 [Compound 38, 3-Chloro-4(2,4-dinitroanilino)-2,5,6-trifluoropyridine] | – | – | – | – | 2 (6 to 25) | 3 (0 to 5) | Amount of disease grading, disease G* (Table 4) [6]: 3 (0 to 5)
17 | O=[N+]([O-])c1cc([N+](=O)[O-])c(Nc2c(F)c(F)nc(F)c2F)cc1F [Compound 39, 4(2,4-Dinitro-5-fluoranilino)tetrafluoropyridine] | – | – | – | – | 3 (0 to 5) | 0 (61 to 100) | Amount of disease grading, disease G* (Table 4) [6]: 3 (0 to 5)
18 | N#Cc1c(F)c(F)c(Nc2c(Cl)c(Cl)nc(Cl)c2Cl)c(F)c1F [Compound 42, 4(4-Cyano-2,3,5,6-tetrafluoroanilino)tetrachloropyridine] | – | – | – | – | 3 (0 to 5) | 3 (0 to 5) | –
19 | Fc1nc(F)c(Cl)c(Nc2c(Cl)c(F)c(Cl)c(F)c2Cl)c1Cl [Compound 43, 3,5-Dichloro-2,6-difluoro-4(3,5-difluoro-2,4,6-trichloroanilino) pyridine] | – | – | – | – | – | 3 (0 to 5) | –
20 | O=[N+]([O-])c1ccc(Nc2c(Cl)c(F)nc(Cl)c2Cl)c(C(F)(F)F)c1 [Compound 44, 2-Fluoro-(4-nitro-2-trifluoromethylanilino)3,5,6-trichlorpyridine] | – | – | 3 (0 to 5) | 3 (0 to 5) | – | 3 (0 to 5) | Antifungal activity grading F1 (Nigrospora sphaerica): 3 (0 to 5); Antifungal activity grading F10 (Botrytis tulipae): 3 (0 to 5); Antifungal activity grading F4 (Diplodia natalensis): 3 (0 to 5); Antifungal activity grading F11 (Botrodiplodia theobromae): 3 (0 to 5); Antifungal activity grading F6 (Ceratosystis paradoxa): 3 (0 to 5); Antifungal activity grading F5 (Phomopsis citri): 3 (0 to 5); Antifungal activity grading F7 (Gloeosporium musarum): 3 (0 to 5); Antifungal activity grading F2 [5]: 3 (0 to 5); Antifungal activity grading F8 (Penicillium digitatum): 3 (0 to 5); Antifungal activity grading F3 (Alternaria citri): 3 (0 to 5); Antifungal activity grading F9 (Phoma exigua): 3 (0 to 5)
